Measured values from publication PMC4336329 (PLoS ONE, 2015).
About 14,000 (4.5%) of roughly 310,000 compounds showed an effect of 50% or more. The effect is printed as a negative number. The list shows a part of the results.

Target: human ether-à-go-go-related gene (hERG) potassium channel (human, UniProt Q12809)
Experiment: primary screen, population patch clamp on CHO cells stably expressing hERG
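Note: peak tail current of the secondary pulse compared with the same well before compound.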

Sequence of human ether-à-go-go-related gene (hERG) potassium channel (Q12809 whole entry, looked up): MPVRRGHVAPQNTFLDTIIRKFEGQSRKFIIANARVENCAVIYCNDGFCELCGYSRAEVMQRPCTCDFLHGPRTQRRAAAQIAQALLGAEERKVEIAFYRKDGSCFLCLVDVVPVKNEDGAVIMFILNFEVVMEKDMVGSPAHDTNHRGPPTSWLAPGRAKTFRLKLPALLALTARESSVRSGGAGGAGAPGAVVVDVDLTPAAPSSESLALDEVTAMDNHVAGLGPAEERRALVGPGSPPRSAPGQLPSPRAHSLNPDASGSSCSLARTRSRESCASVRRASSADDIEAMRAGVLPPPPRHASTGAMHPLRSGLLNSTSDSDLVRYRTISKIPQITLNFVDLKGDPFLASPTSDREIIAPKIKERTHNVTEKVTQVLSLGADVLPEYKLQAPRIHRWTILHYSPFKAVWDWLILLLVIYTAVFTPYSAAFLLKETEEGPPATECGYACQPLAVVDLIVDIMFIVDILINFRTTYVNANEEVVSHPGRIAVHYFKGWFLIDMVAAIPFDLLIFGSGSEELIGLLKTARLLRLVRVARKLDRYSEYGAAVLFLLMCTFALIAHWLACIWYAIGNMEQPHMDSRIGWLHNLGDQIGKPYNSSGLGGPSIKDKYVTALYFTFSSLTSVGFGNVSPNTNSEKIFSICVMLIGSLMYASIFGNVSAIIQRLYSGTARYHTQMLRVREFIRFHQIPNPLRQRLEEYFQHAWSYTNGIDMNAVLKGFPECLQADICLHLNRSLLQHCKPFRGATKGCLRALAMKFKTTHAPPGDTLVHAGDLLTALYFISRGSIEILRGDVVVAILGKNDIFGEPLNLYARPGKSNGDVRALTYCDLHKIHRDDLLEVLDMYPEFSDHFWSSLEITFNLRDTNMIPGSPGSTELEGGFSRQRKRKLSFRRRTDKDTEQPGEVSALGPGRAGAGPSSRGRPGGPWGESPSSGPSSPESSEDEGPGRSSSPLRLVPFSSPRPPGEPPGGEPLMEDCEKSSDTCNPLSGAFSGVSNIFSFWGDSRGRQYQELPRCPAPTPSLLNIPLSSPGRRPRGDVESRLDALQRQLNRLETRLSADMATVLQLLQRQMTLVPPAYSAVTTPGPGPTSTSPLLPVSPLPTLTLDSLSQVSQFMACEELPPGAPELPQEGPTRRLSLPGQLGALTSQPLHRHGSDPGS

Structure (SMILES)	hERG current change (%, negative = inhibition) at 10uM [%]
Cc1ccc(OCCNC(=O)CCNS(=O)(=O)c2ccc3ccccc3c2)cc1	-3.64
CC1Sc2ccc(S(=O)(=O)CCC(=O)N(C)Cc3ccco3)cc2NC1=O (stereo not shown)	-10.5
Cc1ccc(NC(=O)/C(=C\c2ccccc2)NC(=O)/C=C/c2ccccc2)cc1	-12.9
CCOc1cc(N2CCOCC2)c(OCC)cc1NC(=O)c1ccc(S(=O)(=O)N(C)C)cc1	8.66
O=c1[nH]c(=S)[nH]nc1Cc1ccc(Cl)c(Cl)c1	25.6
CCn1cc(C(=O)Nn2cnnc2)c(=O)c2ccc(C)nc21	7.9
O=[N+]([O-])c1ccccc1NCc1ccccc1Cl	-4.13
O=C(NC(=S)Nc1cccc2c(O)cccc12)c1cccc(Br)c1	-2.96
O=C(COc1ccccc1)N1CCN(S(=O)(=O)c2ccc(Br)cc2)CC1	-17
CC(C(=O)N1CCCC1)c1ccc([N+](=O)[O-])cc1 (stereo not shown)	-0.0422
COc1ccc(N(C(=O)CNC(=O)c2ccco2)C(C(=O)NCC2CCCO2)c2ccccc2)c(OC)c1 (stereo not shown)	6.48
O=C(Cn1cnc2ccccc21)N/N=C/c1ccccc1	-1.25
COc1ccc2nc(NCc3ccccc3)[nH]c2c1	-25.4
CCCCN(CC)CCNC(=O)c1nn(-c2ccc(OC)cc2)c(=O)c2c1c1ccccc1n2C	0.748
COc1ccc(Cn2c(=O)c3[nH]cnc3n(-c3ccc(C)cc3)c2=O)cc1	-8.31
CN(C)c1ccc(N=Nc2ccccc2C(=O)OCC(=O)N(C)c2ccccc2)cc1	6.76
CCN(CC)C(=O)c1ccc(-c2nnc(Nc3cccc(O)c3)c3ccccc23)cc1	-33.2
Cc1onc(-c2c(Cl)cccc2Cl)c1C(O)c1ccccc1 (stereo not shown)	-3.04
Cc1nnc(SCC2=C(C(=O)O)N3C(=O)C(NC(=O)Cn4cnnn4)C3SC2)s1 (stereo not shown)	8.27
Cc1ccc(-n2ccnc(SCC(=O)NC3CCCC3)c2=O)cc1Cl	14.3
CC(=O)NC(=S)Nc1ccc(S(=O)(=O)N(C)Cc2ccccc2)cc1	13.5
O=C(Cc1ccccc1)NCc1nc2ccccc2[nH]1	-6.31
CCOC(=O)CNC(=O)Cn1cnc2c(nnn2-c2ccc(F)cc2)c1=O	-16.6
CC(=O)c1cccc(NC(=O)N2CCCC2C(=O)NCc2ccc(F)cc2)c1 (stereo not shown)	-17.2
CC1CCCN(S(=O)(=O)c2ccc(NC(=O)[C@@H]3CCCN3C(=O)c3cccs3)cc2)C1 (stereo partly shown)	-14.7
O=C1/C(=C/c2ccc3c(c2)OCO3)CCC/C1=C\c1ccc2c(c1)OCO2	2.71
Cc1ccc(Cl)cc1N1CCN(C(=O)CN(c2ccccc2)S(=O)(=O)N(C)C)CC1	9.76
Cc1snnc1C(=O)NC(=S)Nc1ccccc1	6.58

Structure (SMILES)	hERG current change (%, negative = inhibition) at 10uM [%]
Cc1ccccc1NC(=O)Cc1c(O)c2ccccc2[nH]c1=O	1.76
CC(OC(=O)c1cccc(S(=O)(=O)N2CCCCC2)c1)C(=O)NC1CCCCC1C (stereo not shown)	-36
CC(C)(C)c1ccc(C(=O)OCC(=O)NCc2ccco2)cc1	-10.9
CC(=O)c1c(C)[nH]c(C(=O)COC(=O)C2CC2)c1C	2.2
OC1(c2ccc(F)cc2)CC2CCC(C1)N2Cc1nnnn1C1CCCCC1 (stereo not shown)	-25
CC(=O)c1cc(-c2ccccc2)n(CC(=O)N2CCCCC2)c1C	0.448
Br.O=C(CN1CCSC1=NCc1ccccc1)c1ccc(Cl)c(Cl)c1	-17.7
COc1ccc2nc(NC(=O)C3CCN(S(=O)(=O)c4cccs4)CC3)sc2c1	-13.6
O=C(Nc1nnc(COc2ccccc2)s1)Nc1ccccc1F	30.9
Oc1ccc(Cl)cc1CNc1cnc2ccccc2c1	16.9
COc1ccc(OC)c(S(=O)(=O)n2cnc3cc(C)c(C)cc32)c1	4.08
Cc1cc(C)n2nc(C(=O)N/N=C/c3ccco3)nc2n1	12.3
O=C(/C=C/c1ccc(Cl)cc1)N1CCN(c2ccccn2)CC1	-32.3
CCCn1c(CN2CCN(C)CC2)nc2ccccc21	-9.68
O=[N+]([O-])c1ccc(Oc2cccc3cccnc23)c([N+](=O)[O-])c1	-52
CC(C(=O)N1CCN(c2ccc(Cl)cc2)CC1)c1ncc(C(F)(F)F)cc1Cl (stereo not shown)	-48.3
CCCCCCOc1ccc(C(CC(=O)O)C(N)=O)cc1 (stereo not shown)	-7
CC1(C)Cc2c(cnn2-c2ccccc2)C(NC(=O)c2ccoc2)C1 (stereo not shown)	-93.4
CC(=O)c1ccc(NC(=O)COC(=O)c2ccccc2N=Nc2ccc(N(C)C)cc2)cc1	4.13
COc1cccc(CN2CC(O)=C(c3nc(-c4ccc(Cl)cc4)cs3)C2=N)c1	-1.11
Nc1ccccc1C(=O)NCCN1CCNC1=O	19.9
COc1ccccc1N1CCN(C2CCCN(S(=O)(=O)c3cccc(Cl)c3)C2)CC1 (stereo not shown)	-40.2
O=C(c1ccsc1)N1CCCC(N2CCOCC2)C1 (stereo not shown)	15.7
COc1ccc(C)cc1N(C(=O)c1ccccc1)c1nc2ccccc2s1	2.93
CCOc1ccc(C(=O)Oc2cc(C)[nH]c(=O)c2[N+](=O)[O-])cc1OCC	22.6
Cc1cc(C)cc(NC(=O)Cn2nnc(C(=O)NCc3ccc4c(c3)OCO4)c2N)c1	15.7
O=C(Cn1c(=O)oc2cc(S(=O)(=O)N3CCCCCC3)ccc21)NC1CCCCCCC1	-1.06
